# Reference: the supplement of paper PMC11417369
# The other results are listed elsewhere or left out.
# Tested on: PfAP2-HC AP2 domain (GST-tagged)
# Experiment: gcPBM binding intensity (ln(normalized median fluorescence intensity)); higher = stronger DNA binding
# How it was run: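 After 1 h on an Agilent 4 × 180k array of primer-extended double-stranded 36-bp intergenic genomic probes and negative controls, bound GST-tagged P. falciparum DNA-binding domains were detected with Alexa488 anti-GST antibody and scanned at 488 nm. The domains had been expressed in E. coli, and binding took place in 1× PBS with 1% milk, 0.2 mg/ml BSA, 0.5% salmon testes DNA and 0.03% Triton X-100. Binding intensity is the highest Masliner-normalised natural-log median intensity across replicate spots of either probe orientation.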
row,Sequence,gcPBM binding intensity (ln)
1,CGTAATAAAAACAAATGTACATGACCTGGACAGGTT [XGTACX_site6560],9.98
2,AATAAGTTATTATTTTGTACACATAAATAATACGTT [XGTACX_site814],9.65
3,GCACTAAAAAAATAAACACACAGATTTATATAATAT [CACACA_site1381],9.79
4,AAGGAACTATAATATACACACATAAGTGTACTTATA [CACACA_site7816],9.78
5,AAAAAAACGTAAAAATGTACTTTTTGTATATAACCT [XGTACX_site7950],9.64
6,ATATATGCATATATTTGTACACATTTTTTTACATAA [XGTACX_site4624],9.76
7,AAACAAAATAAATATGAACACACACCGTTATGCCTT [CACACA_site8347],10.5
8,TATTTGTGGATTTTTACACACATTAATATATATATA [CACACA_site3375],9.78
9,AGGAAAATTATGAATGGTACAGAATATATTAGGAGA [XGTACX_site6282],9.79
10,TTATAAAATAAACTTACACACATGAAATATTATATT [CACACA_site1945],9.68
11,ACATAGATGCATATCACACATAATAATATTGTCGTA [CACACA_site4819],9.85
12,TAAAGCGACATTTGGAAAATATATATCCTAGCATTT [CACACA_negctrl_site327],9.56
13,TATTCGTGCAATAGTAGTACACTTAAAAATTATTCA [XGTACX_site269],9.57
14,AAAATACACAGACACACACACATATAAATAAATATT [CACACA_site7871],10.8
15,ATTCGTTATAAAATATGTACATAAATATATATATAT [XGTACX_site2819],9.7
16,GTAGACTGAAACCACACACACATATATATATATATT [CACACA_site605],10.2
17,TAATATTTCGCACTGTGTACTGAAATATTTATATCG [XGTACX_site516],9.58
18,ATAATAAGACGATAAGGTACACAAAATGTTAATATA [XGTACX_site6984],9.85
19,TATTCAAATTTCCACATACACACCTTGTAGATATAT [CACACA_site281],9.76

row,Sequence,gcPBM binding intensity (ln)
1,AAGACAAATTTTACATGTACAAATATATTACATATA [XGTACX_site7060],9.61
2,AAGAAAAAAAGCAACACACGTACCAACACAATTATG [CACACA_site3133],10.4
3,AATAATAATAAAAATAAACACACATATATATGTATA [CACACA_site8928],9.85
4,AAAGAAAGAAAGAAAAGTACTTAAACTTTTAAAAAT [XGTACX_site8531],9.66
5,ATTTCTTTTGTTATAGTGCATAATATTTATGTACGT,9.65
6,ATATTAATATATAGAAGTACTCACATGTTAATATAA [XGTACX_site7323],9.66
7,TAACTATCATGTATTACACACAATATTTATTATATA [CACACA_site2701],9.85
8,TTAAATAAATAAATAACACACATATAAAAATAACGC [CACACA_site3266],9.95
9,CTATAATATTAGTGCACACACAAAAATGTACTAAAC [CACACA_site6442],10.3
10,AAGAAAAAAACAAAAAAAAAAAAAAAAATTCTTATT [TGCATGCA_negctrl_site504],9.3
11,ATTTTTTTCCACTAGTGTACAAATTTTACATTGTGT [XGTACX_site5023],9.97
12,ACTAATGTAAAAGTTTGTACATATATTGAGAATTAT [XGTACX_site7439],9.66
13,ATAAAATAAAAGGAATGTACTTTTTTTATTGTAATT [XGTACX_site4372],9.55
14,AACAAATTGAAACAATAATTGGAAAAAAAAAAAAAA [CACACA_negctrl_site1145],9.3
15,AACAAATACGGACACACACACACACTAGAAAAAAAA [CACACA_site4442],11
16,TAAAAAAAAACAGAAACACACATTATTCATATAGAT [CACACA_site7052],9.94
17,AAAAGCACCGTTCGTTGTACACTGAAACACTTTTGT [XGTACX_site199],9.78
18,GTTATAAATTTTTTTTTTTTTTTTTTTTTTTTTTTT [CACACA_negctrl_site848],9.33
19,AAATGTATATATGTATGTACATATATATATATATAT [XGTACX_site5778],9.72

row,Sequence,gcPBM binding intensity (ln)
1,AGTTTCTATTTAGTGTGTACTTAAGAAAAATATCTC [XGTACX_site82],9.53
2,ATAAACTGAGTGGTTACACACAAAACCAATAATTTT [CACACA_site3478],9.87
3,ATATATATATATATATGTACTCATATTTTATTATTT [XGTACX_site898],9.65
4,TTTTCAATTTTTTATGAACACACAAAAAAAAAAAAA [CACACA_site8808],9.29
5,TCGCAAATAAATTAATGTACACATATATATATATAT [XGTACX_site5145],9.76
6,TATTATAATGACTATAGTACATAATATTATTTATAT [XGTACX_site1977],9.59
7,ATAGAACTGAATAAATCTATAAATAAATATATATAT [GTGCAC_negctrl_site604],9.56
8,CTCCACAAACAAATCGCACACCCAACCCAACATATA [CACACA_site2650],9.98
9,AATAAATATAAATACACACCCATATATATATATATA [CACACA_site5436],9.67
10,TTAAAAAAAAAAAAAAGTACACACTTATAAAATATT [XGTACX_site1630],9.68
11,ACCAATAAATATTTGGTGCATACATATATATATATA,9.49
12,TCATACCTACATAAAAAAAGGGAAACAAAATGTCAT [XGTACX_negctrl_site34],9.56
13,CTAAATAAAGTTAACACACACATAATATTTATATGT [CACACA_site6368],10.3
14,TACATAAACATTTATACACACATTAGATATACATAT [CACACA_site6329],9.85
15,TCAAAGAGTAGAAAGGTGCTTATGAACGAGATAATT,9.77
16,AAAGTTACATTCGACACACACATAACAACTAAATAA [CACACA_site3419],10.1
17,TTTTACATATATATATGTACGAAAATGAAAAGGTCA [XGTACX_site5576],9.59
18,TATTATAATTTTATATGTACACATATATAAATATAT [XGTACX_site4054],9.63
19,TTTATTTATTAATACACACACACACCCCCACAAAAT [CACACA_site240],11.4
